# B1: GLP-1 (Ser8) Surrobody with a 7 amino acid “GGSGGGS” linker: GLP-1 (Ser8) Surrobody with heptapeptide Gly-Gly-Ser-Gly-Gly-Gly-Ser linker (SEQ ID NO: 28) (protein)
# chain: HSEGTFTSDVSSYLEGQAAKEFIAWLVKGRGGGSGGGSSVTHVFGSGTQLTVLSQPKATPSVTLFPPSSEELQANKATLVCLMNDFYPGILTVTWKADGTPITQGVEMTTPSKQSNNKYAASSYLSLTPEQWRSRRSYSCQVMHEGSTVEKTVAPAECS
# heavy: [here about 100 residues without letters]YFDYWGQGTLVTVSSASTKGPSVFPLAPCSRSTSESTAALGCLVKDYFPEPVTVSWNSGALTSGVHTFPAVLQSSGLYSLSSVVTVPSSSLGTKTYTCNVDHKPSNTKVDKRV[here human IgG4 Fc without letters]
# Target: GLP-1 receptor (Homo sapiens, UniProt P43220)
# Sequence (P43220 24-463): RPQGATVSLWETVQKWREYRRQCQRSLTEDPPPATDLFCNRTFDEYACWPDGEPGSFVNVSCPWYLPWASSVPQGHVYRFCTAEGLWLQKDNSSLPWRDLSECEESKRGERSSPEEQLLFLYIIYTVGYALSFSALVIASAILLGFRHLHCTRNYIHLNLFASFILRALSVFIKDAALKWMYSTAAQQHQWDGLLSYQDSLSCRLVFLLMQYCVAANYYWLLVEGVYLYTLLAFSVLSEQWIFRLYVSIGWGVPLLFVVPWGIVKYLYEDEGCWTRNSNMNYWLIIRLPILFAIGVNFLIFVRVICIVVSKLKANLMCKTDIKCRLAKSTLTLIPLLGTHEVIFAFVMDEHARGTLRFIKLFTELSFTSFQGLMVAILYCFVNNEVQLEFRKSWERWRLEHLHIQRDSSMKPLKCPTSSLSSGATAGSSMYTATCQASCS
# Assay: GLP-1 receptor / β-Arrestin β-galactosidase complementation reporter assay (DiscoverX PathHunter Express)
# Format: cell-based
# Conditions: GLP-1R reporter cells, FIG. 16
# Excerpt: Common bioactivities for GLP-1 involve typical Gs-linked second messenger systems and reporter assays. GLP-1 receptor, like many GPCRs are subject to β-Arrestin binding that contributes to signal cessation following ligand stimulation. In this reporter assay GLP-1 receptor recombinantly fused to an amino terminal fragment of β-galactosidase (donor), while β-Arrestin is recombinantly fused to an amino terminal deletion mutant of β-galactosidase. When both of these recombinant constructs are present in cells the interaction of β-Arrestin and the GPCR following ligand stimulation forces the complementation of the two β-galactosidase fragments resulting in the formation of a functional enzyme that converts the β-galactosidase chemiluminescent substrate to detectable luminescent signal (DiscoverX-PathHunter Express).
# A frozen aliquot of cells expressing GLP-1R/β-galactosidase (donor) and β-Arrestin/β-galactosidase (Acceptor) were seeded in 96-well and allowed to equilibrate for 48 hours at 37° C. in 0.1 ml OCC media (DiscoverX). Next 0.01 ml of test compounds were added to the cells and then incubated for 90 minutes at 37° C. Following the drug treatment 0.055 ml of working detection reagent solution (DiscoverX) was added and then incubated for 90 minutes at room temperature. After this ambient incubation the wells of the resulting plates were read using chemiluminescent plate reader.
molecule,measurement,setting,value
B1,potency relative to GLP-1 Ser8 positive control peptide,90 minutes at 37° C.,equivalent potency
same,potency relative to similar molecule with 2 amino acid GA linker,,better potency

# Reference: US20120269830A1, “CONJUGATES WITH IMPROVED PHARMACOKINETIC PROPERTIES” (priority 2009, published 2012)
